# Assay results from the supplement of paper PMC8728848.
# Some of the results follow.
# B1: Mg3lysM (Mycosphaerella graminicola) (protein)
# chain: APQNPPTSCSAAPQPTGTGSPGTVCGSTTFTNYTVKAGDTLGAIAKQYNSGVCDIAKVNGIDNPDYIKPDQVLSIPANCVTPDNTSCVKPVPVITNTCVLGVGSTYTVKSGDSFSAIATSFNITLASLEARNPQIPNYDLIFPGQVINTPLCPNSVCDSIGTYVIESGDIFYNLAQSNNVTVGQLESLNVNVNVTDIHPGDIIILPHNCHNITASA
# Tests used:
# Test in all cases: glycan array binding signal (z-score within array); higher = stronger binding
# Settings in all cases: glycan notation: IUPAC condensed, linker removed
# [1] = target: Gal(b1-4)GlcNAc(b1-3)Gal(b1-4)GlcNAc(b1-3)Gal(b1-4)GlcNAc(b1-3)Gal(b1-4)GlcNAc(b1-2)Man(a1-3)[Gal(b1-4)GlcNAc(b1-3)Gal(b1-4)GlcNAc(b1-3)Gal(b1-4)GlcNAc(b1-3)Gal(b1-4)GlcNAc(b1-2)Man(a1-6)]Man(b1-4)GlcNAc(b1-4)[Fuc(a1-6)]GlcNAc
# In short: (§1)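 The binding signal is a Z-score computed within each array. Data were drawn from 3228 arrays in the Consortium for Functional Glycomics database, restricted to those with a known protein sequence. Scores were averaged over arrays of the same protein sequence at different concentrations or buffers, and over linkers, and negative values can be taken as non-binding.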
# [2] = target: Gal(b1-4)GlcNAc(b1-3)Gal(b1-4)GlcNAc(b1-3)Gal(b1-4)GlcNAc(b1-3)Gal(b1-4)GlcNAc(b1-2)[Gal(b1-4)GlcNAc(b1-3)Gal(b1-4)GlcNAc(b1-3)Gal(b1-4)GlcNAc(b1-3)Gal(b1-4)GlcNAc(b1-6)]Man(a1-6)[Gal(b1-4)GlcNAc(b1-3)Gal(b1-4)GlcNAc(b1-3)Gal(b1-4)GlcNAc(b1-3)Gal(b1-4)GlcNAc(b1-2)Man(a1-3)]Man(b1-4)GlcNAc(b1-4)[Fuc(a1-6)]GlcNAc
# In short: as §1
# [3] = target: Gal(b1-4)GlcNAc(b1-3)Gal(b1-4)GlcNAc(b1-3)Gal(b1-4)GlcNAc(b1-3)Gal(b1-4)GlcNAc(b1-3)Gal(b1-4)GlcNAc(b1-2)Man(a1-3)[Gal(b1-4)GlcNAc(b1-3)Gal(b1-4)GlcNAc(b1-3)Gal(b1-4)GlcNAc(b1-3)Gal(b1-4)GlcNAc(b1-3)Gal(b1-4)GlcNAc(b1-2)Man(a1-6)]Man(b1-4)GlcNAc(b1-4)GlcNAc
# In short: as §1
# [4] = target: Gal(b1-4)GlcNAc(b1-3)Gal(b1-4)GlcNAc(b1-3)Gal(b1-4)GlcNAc(b1-3)Gal(b1-4)GlcNAc(b1-3)Gal(b1-4)GlcNAc(b1-2)Man(a1-3)[Gal(b1-4)GlcNAc(b1-3)Gal(b1-4)GlcNAc(b1-3)Gal(b1-4)GlcNAc(b1-3)Gal(b1-4)GlcNAc(b1-3)Gal(b1-4)GlcNAc(b1-2)Man(a1-6)]Man(b1-4)GlcNAc(b1-4)[Fuc(a1-6)]GlcNAc
# In short: as §1
# [5] = target: Gal(b1-4)GlcNAc(b1-3)Gal(b1-4)GlcNAc(b1-3)Gal(b1-4)GlcNAc(b1-3)Gal(b1-4)GlcNAc(b1-3)Gal(b1-4)GlcNAc(b1-2)[Gal(b1-4)GlcNAc(b1-3)Gal(b1-4)GlcNAc(b1-3)Gal(b1-4)GlcNAc(b1-3)Gal(b1-4)GlcNAc(b1-3)Gal(b1-4)GlcNAc(b1-6)]Man(a1-6)[Gal(b1-4)GlcNAc(b1-3)Gal(b1-4)GlcNAc(b1-3)Gal(b1-4)GlcNAc(b1-3)Gal(b1-4)GlcNAc(b1-3)Gal(b1-4)GlcNAc(b1-2)Man(a1-3)]Man(b1-4)GlcNAc(b1-4)[Fuc(a1-6)]GlcNAc
# In short: as §1
# [6] = target: Gal(b1-4)GlcNAc(b1-3)Gal(b1-4)GlcNAc(b1-3)Gal(b1-4)GlcNAc(b1-3)Gal(b1-4)GlcNAc(b1-3)Gal(b1-4)GlcNAc(b1-3)Gal(b1-4)GlcNAc(b1-2)Man(a1-3)[Gal(b1-4)GlcNAc(b1-3)Gal(b1-4)GlcNAc(b1-3)Gal(b1-4)GlcNAc(b1-3)Gal(b1-4)GlcNAc(b1-3)Gal(b1-4)GlcNAc(b1-3)Gal(b1-4)GlcNAc(b1-2)Man(a1-6)]Man(b1-4)GlcNAc(b1-4)GlcNAc
# In short: as §1
# [7] = target: Gal(b1-4)GlcNAc(b1-3)Gal(b1-4)GlcNAc(b1-3)GalNAc
# In short: as §1
# [8] = target: Gal(b1-4)GlcNAc(b1-3)Gal(b1-4)GlcNAc(b1-3)[Gal(b1-4)GlcNAc(b1-3)Gal(b1-4)GlcNAc(b1-6)]GalNAc
# In short: as §1
# [9] = target: Gal(b1-4)GlcNAc(b1-3)Gal(b1-4)GlcNAc(b1-6)[Gal(b1-3)]GalNAc
# In short: as §1
# [10] = target: Gal(b1-4)GlcNAc(b1-3)Gal(b1-4)[Fuc(a1-3)]GlcNAc(b1-3)Gal(b1-4)[Fuc(a1-3)]GlcNAc
# In short: as §1
# [11] = target: Gal(b1-4)GlcNAc(b1-3)GalNAc
# In short: as §1
# [12] = target: Gal(b1-4)GlcNAc(b1-3)[Fuc(a1-3)GlcNAc(b1-6)]Gal(b1-4)Glc
# In short: as §1
# [13] = target: Gal(b1-4)GlcNAc(b1-3)[Gal(b1-4)GlcNAc(b1-6)]Gal(b1-4)GlcNAc
# In short: as §1
# [14] = target: Gal(b1-4)GlcNAc(b1-3)[GlcNAc(b1-6)]Gal(b1-4)GlcNAc
# In short: as §1
# [15] = target: Gal(b1-4)GlcNAc(b1-6)Gal(b1-4)GlcNAc
# In short: as §1
# [16] = target: Gal(b1-4)GlcNAc(b1-6)GalNAc
# In short: as §1
# [17] = target: Gal(b1-4)GlcNAc(b1-6)[Gal(b1-3)]GalNAc
# In short: as §1
# [18] = target: Gal(b1-4)GlcNAc(b1-6)[Gal(b1-4)GlcNAc(b1-3)]GalNAc
# In short: as §1
# Gal(b1-4)GlcNAc6P = target: Gal(b1-4)GlcNAc6P
# In short: as §1
# Gal(b1-6)Gal = target: Gal(b1-6)Gal
# In short: as §1
# Gal3S(b1-3)GalNAc = target: Gal3S(b1-3)GalNAc
# In short: as §1
# Gal3S(b1-3)GlcNAc = target: Gal3S(b1-3)GlcNAc
# In short: as §1
# [19] = target: Gal3S(b1-3)[Fuc(a1-4)]GlcNAc
# In short: as §1
binder,measurement,setting,value
B1,glycan array binding signal (z-score),[1],-0.04
same,glycan array binding signal (z-score),[2],0.03
same,glycan array binding signal (z-score),[3],-0.014
same,glycan array binding signal (z-score),[4],0.009
same,glycan array binding signal (z-score),[5],0.14
same,glycan array binding signal (z-score),[6],0.052
same,glycan array binding signal (z-score),[7],-0.097
same,glycan array binding signal (z-score),[8],-0.081
same,glycan array binding signal (z-score),[9],-0.078
same,glycan array binding signal (z-score),[10],-0.028
same,glycan array binding signal (z-score),[11],-0.079
same,glycan array binding signal (z-score),[12],-0.173
same,glycan array binding signal (z-score),[13],-0.053
same,glycan array binding signal (z-score),[14],-0.112
same,glycan array binding signal (z-score),[15],0.051
same,glycan array binding signal (z-score),[16],-0.073
same,glycan array binding signal (z-score),[17],-0.01
same,glycan array binding signal (z-score),[18],-0.106
same,glycan array binding signal (z-score),Gal(b1-4)GlcNAc6P,0.098
same,glycan array binding signal (z-score),Gal(b1-6)Gal,-0.068
same,glycan array binding signal (z-score),Gal3S(b1-3)GalNAc,-0.103
same,glycan array binding signal (z-score),Gal3S(b1-3)GlcNAc,-0.075
same,glycan array binding signal (z-score),[19],0.098
